Assay results taken from PubChem BioAssay AID924 (National Center for Advancing Translational Sciences (NCATS), 2007).
About 1,200 (0.92%) of roughly 130,000 compounds were called active. The inconclusive results got no clear call from the source; some entries with a clear call stand among them for comparison. The call rests on the fitted dose curve; in most records, active means well fitted cell-killing curve with a large enough effect; inconclusive means small, poorly fitted or top-dose-only effect; inactive means no such curve, though single readings can be large or run the other way. A potency beside an inconclusive call is a rough fit, not a confirmed value.

Assay: qHTS Screen for Compounds that Selectively Target Cancer Cells with p53 Mutations: Cytotoxicity of p53ts Cells at the Permissive Temperature; further: nearly all actives have a fitted effect of over 55% in size;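 on activity change, negative = cytotoxicity: 0% = DMSO and -100% = full killing by reference compound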
Conditions: H1299-p53A138V at 32C, ATP luminescence viability, 24 h; activity change, negative = cytotoxicity: at 46.1 µM (top of the series)
In short: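 Cells: H1299 p53ts (A138V), 600/well, pre-incubated 16–30 h at 37C. Cpd up to 46 uM, 24 h, 32C. Readout: ATPlite luminescence, 20 min RT. Normalization: DMSO vs tamoxifen 100 uM. AC50 by Hill equation.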
Potency means the concentration at half of the fitted maximal effect; tags describe the fitted curve by direction and shape.

Structure (SMILES) | activity change, negative = cytotoxicity | Potency
COc1cccc(C2CC(C(F)(F)F)n3nc(C(=O)NCc4cccnc4)cc3N2)c1 (stereo unspecified) | inactive: 1.76% | –
Cc1ccc(NC(=O)NCCOCCn2c(=O)oc3ccccc32)c(C)c1 | inactive: -4.56% | –
O=C(CSc1nc2c([nH]c3ccccc32)c(=O)n1-c1ccccc1)N1CCCc2ccccc21 | inactive: -0.396% | –
Cc1ccc2c(c1)C(N1CCCC1=O)CC(c1ccco1)N2 (stereo unspecified) | – | inconclusive: 15.8 µM [cytotoxic, partial curve]
Cc1ccc(NC(=O)c2cc(S(=O)(=O)NC3CCCCCC3)ccc2F)cc1F | – | inconclusive: 7.94 µM [cytotoxic, partial curve]
O=C1CC(N2CCN(c3ccccn3)CC2)C(=O)N1CC(c1ccccc1)c1ccccc1 (stereo unspecified) | – | inconclusive: 10 µM [cytotoxic, partial curve, poor fit]
CN(C)c1ccc(C=Nc2ccccc2C(N)=O)cc1 | – | inconclusive: 15.8 µM [cytotoxic, single point]
COc1cc(/C=N/O)ccc1OCc1ccc(C(=O)O)cc1 | – | active: 8.91 µM
Cc1nc(Nc2nc3ccccc3o2)nc2c1CCC2 | – | active: 12.6 µM
CC(=O)N[C@@H](c1ccccc1)[C@]1(C)C[C@H]1[C@@H](C)C(=O)Nc1ccc2ccccc2c1 | – | inconclusive: 31.6 µM [cytotoxic, single point]
O=c1[nH]cnc2nn(-c3ccccc3)nc12 | – | inconclusive: 12.6 µM [cytotoxic, single point]
CNC(=O)c1ccc(Nc2nnc(-c3ccc(C)c(S(=O)(=O)N4CCOCC4)c3)c3ccccc23)cc1 | – | inconclusive: 31.6 µM [cytotoxic, single point]
Cc1cc(=O)oc2cc(O)cc(O)c12 | inactive: 11.4% [at 1.84 µM] | –
CCOc1ccccc1CN(CCc1ccc2c(c1)OCO2)Cc1cccc(OC)c1OC | – | inconclusive: 20 µM [cytotoxic, partial curve]
O=c1cc(-c2ccccc2)[nH]c2nc3ccccc3n12 | – | active: 2 µM
CC(C)c1ccc(NC(=O)c2ccc(Br)o2)cc1 | – | inconclusive: 12.6 µM [cytotoxic, single point]
COc1ccccc1-n1c(SCC(=O)Nc2ccc(C)cc2)nc(O)cc1=O | inactive: 3.25% | –
O=C(NCc1ccccc1Cl)C1CCC(CNS(=O)(=O)c2ccc(Br)s2)CC1 (stereo unspecified) | – | inconclusive: 31.6 µM [cytotoxic, single point]
COc1ccc(CCNC(=O)c2nn(C)c3c2CSc2ccccc2-3)cc1OC | – | inconclusive: 35.5 µM [cytotoxic, single point]
O=c1c2cc3c(nc2ncn1Cc1ccccc1F)CCCC3 | – | inconclusive: 12.6 µM [cytotoxic, single point]
O=C(Nc1ccc(NC(=O)c2ccco2)nc1)c1ccccn1 | – | active: 12.6 µM
CCN1CCN(c2cc(C)c3cc(NC(=O)/C=C/c4cccc(Cl)c4)ccc3n2)CC1 | – | inconclusive: 31.6 µM [cytotoxic, single point]
COCCCN1C(=O)c2[nH]nc(-c3cc(C)cc(C)c3O)c2C1c1ccc(O)c(OC)c1 (stereo unspecified) | inactive: 13.6% | –
O=C(CCCc1ccccc1)c1ccc2c(c1)OCCO2 | – | active: 7.94 µM

Structure (SMILES) | activity change, negative = cytotoxicity | Potency
CSc1nc(Cl)c(Cc2ccc(OC(C)C)cc2)c(N(C)C)n1 | – | inconclusive: 0.02 µM [cytotoxic, full curve, poor fit]
Cc1c(NS(C)(=O)=O)cccc1-c1nc2ccccc2s1 | – | inconclusive: 12.6 µM [cytotoxic, partial curve]
COc1ccccc1-c1cc(C(F)(F)F)nc(S(=O)(=O)CCCC(=O)Nc2ccc(F)c(Cl)c2)n1 | – | inconclusive: 15.8 µM [cytotoxic, partial curve]
CCOC(=O)c1nn(-c2ccc3c(c2)CCN3C(C)=O)cc1O | – | active: 5.01 µM
O=S(=O)(NCc1ccc(Cl)cc1)c1ccc2[nH]c3c(c2c1)CCCC3 | – | inconclusive: 35.5 µM [cytotoxic, single point]
Cn1c(=O)c(-c2ccc(Cl)cc2)nc2cnc(OCc3ccccc3)nc21 | inactive: 2.44% | –
Oc1ccccc1Nc1nc(NCC2CCCO2)c2ccccc2n1 (stereo unspecified) | – | inconclusive: 31.6 µM [cytotoxic, single point]
COc1cc(C(CC(=O)Nc2cccc(C(C)=O)c2)N2Cc3ccccc3C2=O)cc(OC)c1OC (stereo unspecified) | inactive: 2.54% | –
CCOC(=O)c1ccc(N2C(=O)c3n[nH]c(-c4cccs4)c3C2c2ccc(CC)cc2)cc1 (stereo unspecified) | – | inconclusive: 22.4 µM [cytotoxic, single point]
O=C(Nc1ccc2c(c1)OCO2)c1cc(C2CC2)on1 | – | inconclusive: 10 µM [cytotoxic, partial curve]
O=C(Nc1nc2n(n1)C(c1ccc(Cl)cc1)CC(c1ccc(Cl)cc1)N2)c1ccco1 (stereo unspecified) | – | inconclusive: 31.6 µM [cytotoxic, single point]
COc1cc(OC)c(NC(=O)c2noc3c2CSc2ccccc2-3)cc1Cl | inactive: 2.71% | –
Cc1ccc(C)c(NC(=O)CSc2nnc(-c3cc4occc4n3C)n2-c2ccccc2C)c1 | inactive: 1.08% | –
O=C(COc1ccccc1)Nc1nccs1 | – | inconclusive: 10 µM [cytotoxic, single point]
CCNc1ncc2nc(-c3ccccc3)c(=O)n(C)c2n1 | – | inconclusive: 12.6 µM [cytotoxic, partial curve]
COCn1c(COc2ccccc2)nc2ccccc21 | – | inconclusive: 12.6 µM [cytotoxic, partial curve]
Cc1ccc(-n2nnnc2C(Cl)c2nnnn2-c2ccc(C)cc2)cc1 | – | inconclusive: 28.2 µM [cytotoxic, partial curve, poor fit]
CC(=O)[C@@H]1[C@H]2[C@H](C(=O)[C@H]3OC[C@@H]2O3)[C@H]2C=Cc3ccccc3N21 | – | inconclusive: 15.8 µM [cytotoxic, partial curve]
Cc1cnc(C(=O)Nc2ccc3c(c2)CCC3)cn1 | – | inconclusive: 12.6 µM [cytotoxic, single point]
COc1ccc(N2CCN(C(=O)C3CCN(S(=O)(=O)c4cn(C)cn4)CC3)CC2)cc1 | inactive: 5.32% | –
COc1ccc(CCNC(=O)CCCn2nc(C)c3sc4ccccc4c3c2=O)c(OC)c1 | – | inconclusive: 12.6 µM [cytotoxic, single point]
O=C(NCCN1CCCCC1)c1ccc(Cn2c(SCc3ccccc3)nc3cccnc32)cc1 | – | active: 12.6 µM
COc1ccc(C2CC(c3ccco3)n3ncnc3N2)cc1 (stereo unspecified) | – | inconclusive: 2 µM [cytotoxic, partial curve, poor fit]
O=C(c1ccc(Cl)cc1)N1CCCCC(Sc2nnc(-c3ccc4c(c3)OCO4)o2)C1=O (stereo unspecified) | – | active: 7.94 µM

Structure (SMILES) | activity change, negative = cytotoxicity | Potency
CCC(C(=O)NC1CCCCC1)n1c(SCc2cccc(C)c2)nc2ccncc21 (stereo unspecified) | – | active: 12.6 µM
CC1=CC(C)(C)Nc2ccc(OC(=O)c3cccnc3)cc21 | – | inconclusive: 31.6 µM [cytotoxic, single point]
CCc1nc(C)c(C#N)c2cc(OC)c(OC)cc12 | inactive: -2.21% | –
COc1ccc(NC(=O)c2ccc(-c3ccc(-c4noc(C)n4)cc3C)cc2)cc1OCCN(C)C | – | active: 25.1 µM
COC(=O)c1ccc(-c2cc(C(=O)O)c3cc4c(cc3n2)OCCO4)cc1 | – | inconclusive: 12.6 µM [cytotoxic, partial curve]
COc1cccc(NC(=O)Nc2cc(-c3cn4cccnc4n3)ccc2C)c1 | – | inconclusive: 10 µM [cytotoxic, partial curve]
CCC(Sc1nnc(C)n2c1cc1occc12)C(=O)Nc1ccccc1F (stereo unspecified) | – | inconclusive: 31.6 µM [cytotoxic, single point]
CN(C)c1ccc(NC(=O)c2cccc(N3C(=O)C4C5C=CC(C5)C4C3=O)c2)cc1 (stereo unspecified) | – | inconclusive: 1.58 µM [cytotoxic, partial curve]
Cc1ccc(Cl)cc1N1CCN(C(=O)CSc2nnc3n2C(C)(C)Cc2ccccc2-3)CC1 | – | inconclusive: 35.5 µM [cytotoxic, single point]
Cc1ccc(S(=O)(=O)C2C(=O)N(C)C3(C)CC2c2ccccc2O3)cc1 (stereo unspecified) | – | inconclusive: 0.398 µM [cytotoxic, full curve, poor fit]
COc1ccccc1N1CCN(C(=O)Cn2ncc3c(=O)oc4ccccc4c32)CC1 | – | inconclusive: 25.1 µM [cytotoxic, single point]
O=C(Nc1cccc(Cl)c1)c1c(NC(=O)C(F)(F)F)sc2c1CCCC2 | – | inconclusive: 0.794 µM [cytotoxic, full curve]
O=C(Nc1ccccn1)c1ccc2ccccc2n1 | – | active: 15.8 µM
Nc1ccc(-c2cnc(-c3ccc(N)cc3)nc2)cc1 | – | active: 10 µM
COc1ccc(CN(C(=O)CN2C(=O)C(C)Oc3ccccc32)C2CCCC2)c(OC)c1 (stereo unspecified) | inactive: 14.5% | –
O=C(NCc1cccs1)Nc1ccc2c(c1)OCO2 | – | inconclusive: 31.6 µM [cytotoxic, single point]
Cc1cc(N2CCCCC2)n2ncc(-c3ccccc3)c2n1 | – | active: 12.6 µM
c1ccc(OCc2nc3ccccc3[nH]2)cc1 | – | inconclusive: 20 µM [cytotoxic, single point]
CCN(CC)c1ccc2c(Cl)c(Br)c(=O)oc2c1 | – | active: 12.6 µM
CCCc1noc2c1/C(=N\O)CC(CC(C)SCC)C2 (stereo unspecified) | inactive: 9.83% | –
COc1ccccc1NC(=O)CSc1nnc(-c2ccccc2)o1 | – | inconclusive: 15.8 µM [cytotoxic, partial curve]
Clc1ccc2c(c1)C1OCCC1C(c1ccco1)N2 (stereo unspecified) | – | active: 7.94 µM
Cc1ccc(NC(=O)c2sc3ccccc3c2Cl)cc1 | – | inconclusive: 12.6 µM [cytotoxic, partial curve]
